Measurements reported in PubChem BioAssay AID1346428 (National Center for Advancing Translational Sciences (NCATS), 2018).
About 1,200 (2.5%) of roughly 48,000 compounds were called active. Another 2% or so got no clear call; they are omitted.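 Rule for the calls: active = activation of at least 60% and not above a set upper limit (about 1 call in 100 departs from these limits); inconclusive = activation of 40% to 60%, or above that upper limit; inactive = activation under 40%.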 Some of the results follow.

Biological target: Probable G-protein coupled receptor 32 (Homo sapiens) (UniProt O75388)
Assay: qHTS for Agonists of Human Resolvin D1 Receptor DRV1; note: 0% is about no effect
Details: CHO-K1 GPR32 beta-arrestin PathHunter luminescence, 90 min; at 76.9 µM; stronger effect = higher value; zero percent set by DMSO-only wells
Method in brief: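 GPR32 activation in stably transfected CHO-K1 cells, detected as beta-arrestin recruitment by enzyme-fragment complementation. Compound exposure: 90 min, 37 °C.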

UniProt O75388, sequence (O75388 whole entry, looked up): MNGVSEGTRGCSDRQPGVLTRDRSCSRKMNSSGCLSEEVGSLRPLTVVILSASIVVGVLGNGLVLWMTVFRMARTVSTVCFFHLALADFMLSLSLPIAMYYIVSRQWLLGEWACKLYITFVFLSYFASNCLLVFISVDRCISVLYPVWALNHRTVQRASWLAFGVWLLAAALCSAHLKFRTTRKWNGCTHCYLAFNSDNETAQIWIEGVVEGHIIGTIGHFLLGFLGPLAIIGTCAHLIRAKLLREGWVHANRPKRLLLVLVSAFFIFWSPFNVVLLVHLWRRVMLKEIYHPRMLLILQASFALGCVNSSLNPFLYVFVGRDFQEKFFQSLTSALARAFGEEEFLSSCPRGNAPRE

activation, inactive:
CC1=C(C(=O)Nc2cc(C)cc(C)c2)C2(CCCCC2)OC1=O -12.5%, O=C(Nc1ccc(F)c(F)c1)c1ccc(=O)n(Cc2ccc(F)cc2)c1 31.8%, COc1ccc(NC(=O)COCc2cc(-c3ccco3)on2)cc1Cl -17.3%, COc1ccc(CCNC(=O)CCc2c(C)c3ccc(O)c(C)c3oc2=O)cc1 36.2%, Cc1nc2nc(CNC(=O)OC(C)(C)C)nn2c(C)c1CCC(=O)NCc1ccccc1Cl -4.86%, CCc1ccc(-n2c(=O)c3sc4ccccc4c3n(CC(=O)NC3CCCC3)c2=O)cc1 12.4%, COc1cc(OC)c(NC(=O)CCc2nc(C3=CCN(Cc4cccc(Cl)c4)CC3)no2)cc1Cl -3.03%, Nc1nc(N)c(S(=O)(=O)c2ccccc2)c(Nc2ccccc2)n1 23.3%, COc1cccc(C2C(=O)N(C3CCCCC3)CC(=O)N2CCc2ccc(OC)c(OC)c2)c1 (centres undefined) -13%, CCc1ccc2c(c1)c(=O)c(S(=O)(=O)c1ccc(F)cc1)cn2CC(=O)Nc1ccccc1OC -12.6%, Cc1ccc(NC(=O)c2oc3ccccc3c2NC(=O)C2CCCCC2)cc1 -4.5%, COc1ccc(-c2cc(C(=O)Oc3ccc(Br)cc3)c3ccccc3n2)cc1 -20%, COc1ccc(Br)cc1CNCc1c(C(=O)O)c(C)n(Cc2ccccc2C)c1C -2.06%, CCOc1ccc(-c2cc3nc(C4CCN(C(=O)OC(C)(C)C)CC4)c(C(=O)Nc4cccc(C(F)(F)F)c4)cn3n2)cc1 -6.05%, Cc1nc2cccnc2n1-c1cccc(C(=O)NCc2cccc(Cl)c2)c1 8.86%, CCCCCOC(=O)CSc1nc2sc3c(c2c(=O)n1Cc1ccccc1)CC(C)(CC)OC3 (centres undefined) -14.8%, CCS(=O)(=O)N1CC(=O)N(c2cc(Cl)ccc2C)C(C)(C(=O)NC2CCCCCC2)C1 (centres undefined) 12.6%, Cc1cc2c(cc1S(=O)(=O)CCC(=O)N1CCN(c3ccccc3)CC1)OCC(=O)N2 -10.2%, Cc1ccc(-n2c(=O)c3c4c(sc3n(CC(=O)C(C)(C)C)c2=O)CCCCC4)cc1C -2.52%, COc1cc(Cl)c(NS(=O)(=O)c2cc3[nH]c(=O)c(=O)[nH]c3cc2C)c(OC)c1 -12.3%, COc1cccc(C(=O)NC2=NC(c3ccccc3F)CC(=O)N2)c1 (centres undefined) -18.9%, CC(C)NCC(O)COc1ccc(CC(N)=O)cc1 (centres undefined) 0.239%, COc1ccc(-c2nc3scc(CCNS(=O)(=O)c4cccs4)n3n2)cc1 19.9%, COc1ccc(CNC(=O)CCc2c(C)nn(-c3ccc(N4CCCC4)nn3)c2C)cc1 -8.15%, CCOC(=O)Cc1ccc(NC(=O)Nc2nnc(N3CCCCC3C)s2)cc1 (centres undefined) 25%, O=C(Nc1ccc2c(c1)CCCN2C(=O)c1cccs1)c1ccccc1C(F)(F)F -14.6%, COC(=O)c1ccc(NC(=O)c2c(-c3ccccc3)c(-c3ccccc3)nn(C)c2=O)cc1 -16.7%, CCC(=O)N1CCc2cc(Br)cc(S(=O)(=O)NCCc3ccc(C)cc3)c21 -6.19%, CCCN(C(=O)c1cc2c(s1)-c1ccccc1OC2)c1ccc(C(C)C)cc1 -3.02%, Cc1cccc(OC(=O)c2snnc2C)c1C -0.268%, CCOC(=O)c1ccc(NC(=O)Nc2cc3c(cc2N2CCCCC2)n(CC)c(=O)n3CC)cc1 -9.45%, CCc1ccc(Nc2nc(-c3cc4cccc(OC)c4oc3=O)c(CC)s2)cc1 -35.2%, COc1ccc(NC(=O)c2c(C)oc3ccc(O)c(CN4CCN(C)CC4)c23)cc1Cl 20.1%, O=C(Nc1c(C(=O)N2CCN(c3ccc(F)cc3)CC2)oc2ccccc12)c1ccco1 -24.1%, Cc1ccc(-c2nnc(Nc3ccc(C(N)=O)cc3)c3ccccc23)cc1S(=O)(=O)N1CCCCC1 -5.71%, CCOC(=O)C1CCCN(CCC(=O)Nc2ccc(OC)cc2OC)C1 (centres undefined) -9.62%, COc1cccc(N2CCN(S(=O)(=O)c3ccc(-c4cnc(C5CC5)o4)cc3)CC2)c1 9.72%, COc1ccc(CCNC(=O)c2ccc(CS(=O)(=O)c3ccc(C)cc3)o2)cc1OC 34.9%, CCCc1nn2c(=O)cc(COC(=O)c3ccc(NC(=O)c4cccs4)cc3)nc2s1 -23.3%, CCc1ccc(NC(=O)CSC2=Nc3ccccc3C3=NC(CCC(=O)NCc4cccs4)C(=O)N23)cc1 (centres undefined) -28.5%, O=C(CSc1nc2ccccc2n1Cc1ccc(F)c(Cl)c1)N1CCN(c2ccc(F)cc2)CC1 -2.46%, Cc1cccc(-n2ccnc2SCC(=O)Nc2ccccc2C(F)(F)F)c1 -8.26%, CCn1cc(C(=O)NCCc2ccccc2)c(=O)c2cc(S(=O)(=O)N3CCOCC3)ccc21 -7.62%, COc1ccc(CNC(=O)CCc2c(C)nc3c(c2C)c(=O)n(C)c(=O)n3C)cc1 -8.46%, CCC(=O)N1CCc2cc(S(=O)(=O)NC(C(=O)NCc3ccc(OC)cc3)C(C)C)ccc21 (centres undefined) -4.99%, Cc1ccc(Cn2c(C)c(CNC3CCCCC3)c(C(=O)O)c2C)cc1 -9.59%, CCOC(=O)c1cc2c(=O)n3ccccc3nc2n(Cc2ccco2)c1=NC(=O)c1cc(C)cc(C)c1 -2.96%, COC(=O)c1ccc(NC(=O)c2nn(C)c3c2CS(=O)(=O)c2ccccc2-3)cc1 -4.99%, CCc1ccccc1NC(=O)CC(c1ccc(F)cc1)N1Cc2ccccc2C1=O (centres undefined) -23.9%, COc1ccc(CCNc2nc3c(c(=O)n(C)c(=O)n3C)n2Cc2ccc(F)cc2)cc1OC 7.95%, COc1ccc(OC)c(CCNC(=O)CCCc2nnc3n(C)c(=O)c4sccc4n23)c1 -0.994%, COc1cccc(N2C(=O)CSC23C(=O)N(CC(=O)Nc2cc(C)ccc2C)c2ccccc23)c1 (centres undefined) -7.39%, CC1CCN(S(=O)(=O)c2ccc3nc(-c4cccnc4)cc(C(=O)NCCCOC(C)C)c3c2)CC1 -8.91%, COc1ccc2[nH]cc(CCNC(=O)Nc3ccccc3C)c2c1 7.42%, CNCCc1cnc(CCC(c2ccccc2)c2ccccc2)[nH]1 -4.89%, Cc1ccc2sc(N3CCN(C(=O)C4COc5ccccc5O4)CC3)nc2c1C (centres undefined) -6.8%, COc1ccc(C)cc1NC(=O)CN1CCN(CC(=O)Nc2ccccc2F)CC1 -9.94%, Cc1cc(C)c(NC(=O)c2sc3nc(C)cc(C)c3c2N)c(C)c1 37.5%, Cc1ccc(Cl)cc1NC(=O)c1oc2ccc(S(=O)(=O)N3CCC4(CC3)OCCO4)cc2c1C -2.11%, Fc1ccc(CNc2nc3c(-c4ccc(F)cc4)nnn3c3ccccc23)cc1 -6.7%, CCCCSc1ncnc2c1sc1nc(N3CCOCC3)c3c(c12)CCCC3 -6.52%, COc1ccc(-c2noc(CSCC(=O)Nc3ccc(C)cc3Br)n2)cc1OC -11.5%, COc1cccc(/C=C/c2nc(C#N)c(N(C)Cc3ccccc3)o2)c1 19.9%, COCCCNC(=O)CN1C(=O)c2c(c3ccccc3n2C)C1c1ccc(OC)cc1 (centres undefined) -15.2%, COc1cc(C(=O)NCc2ccc3c(c2)CCN3C(=O)c2ccncc2)cc(OC)c1OC -12.4%, Cc1ccc(NC(=O)NCCc2c(C)nn(C)c2C)c(Cl)c1 5.94%, Cc1ccc(NC(=O)c2cc(-c3ccc4c(c3)OCO4)on2)cc1 -0.8%, CCOc1ccc(CNC(=O)COc2cc(=O)n(C)c3ccccc23)cc1 12.7%, CC1=C(C(=O)Nc2ccc(C)cc2)C(c2ccccc2Cl)n2nnnc2N1 (centres undefined) -2.74%, CCCN1CCN(CCCNC(=O)Cn2nc(C)n3c(cc4cc(F)ccc43)c2=O)CC1 -5.44%, Cc1cccc2c1-c1sc(C(=O)NCc3ccccc3Cl)cc1CO2 -17.9%, COc1cc(NC(=O)c2ccc(C(=O)Nc3cc(OC)c(Cl)cc3OC)cc2)c(OC)cc1Cl -15.1%, COc1cccc(NC(=O)c2cc(CN3CCOCC3)on2)c1 6.46%, CCC(=O)N1CCc2cc(Br)cc(S(=O)(=O)CCC(=O)NCc3ccccc3)c21 -10.2%, Cc1nn2c(=O)cc(COC(=O)c3ccc(C(C)(C)C)cc3)nc2s1 -21.2%, CSc1cccc(NC(=O)CN(C)S(=O)(=O)c2ccc3c(c2)n(C)c(=O)c(=O)n3C)c1 -6.95%, CCCCCCCCCCCCCCCC[N+](C)(C)Cc1ccccc1 11.8%, COc1ccccc1CNC(=O)c1c2c(nc3ccccc13)C(=O)N(C1CCCCC1)C2 -5.61%, O=c1ccc2cc(S(=O)(=O)N3CCCC3)ccc2[nH]1 -21.7%, COc1ccc(CNC(=O)Cc2c(C)c3ccc(O)cc3oc2=O)cc1 20.2%, Cc1cccc(C)c1NC(=O)c1ccc2nc(CCc3ccccc3)oc2c1 -18.8%, Cc1cccc(NC(=O)c2sc3cccc(Cl)c3c2Cl)c1 -14.1%

activation, active:
c1ccc2c(c1)CCc1ccccc1N2 119%, COc1cc(CN2CCc3nc(Nc4ccc5c(c4)OCCO5)ncc3C2)cc(OC)c1OC 96.6%
